Laboratory results as given in the supplement of paper PMC4894684.
Where a name gives a salt, the structure may show the parent alone. ± gives the standard deviation of the averaged measurements. Out of some 1,000 compounds screened, about 15 (2%) showed an effect of 50% or more. This is one part of the list.

Tested on: HFF
Assay: uninfected host cell viability relative to vehicle control; higher = less host cell toxicity
Conditions: 5 µM; 72 h; oxygen 21 %
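Also: confluent HFF monolayers, run in parallel with the Toxoplasma growth screen as a host toxicity counterscreen.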

Compared with `COC(=O)[C@H]1[C@H]2C[C@@H]3c4[nH]c5cc(OC)ccc5c4CCN3C[C@H]2C[C@@H](OC(=O)c2cc(OC)c(OC)c(OC)c2)[C@@H]1OC` [Reserpine], `COc1cc(Br)c(S(=O)(=O)Nc2ccc(Cl)c(O[C@@H]3CCN(C)C3)c2)cc1OC` is higher in “uninfected host cell viability” value: 88.396 ± 0.04% for the first, 96.9 ± 3% for the second.

First: CN(C)CCCSc1ccccc1NC(=O)/C=C/c1ccccc1 [Cinanserin hydrochloride]
Second: CN(C)CCC1(c2ccc(Cl)cc2)Cc2ccccc2C(=O)O1 (racemic) [(±)-AC 7954 hydrochloride]
The “uninfected host cell viability” value of the first is lower: 87.5 ± 2.2% for the first, 102.9 ± 0.53% for the second.

Going from `O=C(O)CC/C=C\C[C@H]1CO[C@@H](c2ccccc2Cl)O[C@H]1c1ccccc1O` to `O=C(O)Cn1c(C(=O)Nc2nc(-c3ccccc3Cl)cs2)cc2ccccc21`, the “uninfected host cell viability” value falls from 98.6 ± 1.1% to 89.61 ± 0.48%.

Going from `CCCCCCCC/C=C\CCCCCCCC(=O)NCc1ccc(O)c(OC)c1` [Olvanil] to `CCCCCCCCCCCCCCCC(=O)O[C@H](CC(=O)O)C[N+](C)(C)C` (racemic) [(±)-Palmitoylcarnitine chloride], the “uninfected host cell viability” value rises from 82.3 ± 1.8% to 89.8 ± 4.6%.

`COc1ccc(-c2nc(C(=O)N3CCN(C)CC3)sc2-c2ccc(OC)cc2)cc1` and `CN1CCC(=C2c3ccccc3C=Cc3ccccc32)CC1` [Cyproheptadine hydrochloride] are within error of each other in “uninfected host cell viability” value: 81.4 ± 4.7% for the first, 75.4 ± 4.6% for the second.

Going from `Cc1nn(C)c2nc(NNC(=O)Nc3cc(Cl)nc(Cl)c3)cc(C(C)C)c12` to `CN(C)c1nc(N)c(C(=O)Nc2cccnc2)nc1Cl` [ACDPP hydrochloride], the “uninfected host cell viability” value rises from 89.2 ± 3.1% to 97.2 ± 3.6%.

`CC(C)Oc1cccc(-n2c(CCc3c[nH]c4ccc(Br)cc34)nc3ccccc3c2=O)c1` and `O=C(COc1cccc2c(=O)[nH]ccc12)c1ccccc1` are within error of each other in “uninfected host cell viability” value: 92.8 ± 5.5% for the first, 96.3 ± 7.2% for the second.

Compared with `CC1(CN2CCC(n3c(=O)[nH]c4ccccc43)CC2)OCc2ccccc2-n2cccc21` (stereo not drawn), `O=C(c1ccc(F)cc1)C1CCN(CCCCc2ccccc2)CC1` [4-(4-Fluorobenzoyl)-1-(4-phenylbutyl)-piperidine oxalate] is lower in “uninfected host cell viability” value: 94.4 ± 2% for the first, 89 ± 2.3% for the second.

First: COc1ccc(CCN(C)CCc2ccc(OC)c(OC)c2)cc1OC [YS-035 hydrochloride]
Second: CN(CCc1ccc(Cl)c(Cl)c1)CC(O)COc1ccc(NS(C)(=O)=O)cc1 (stereo not drawn)
The “uninfected host cell viability” value of the first is lower: 88.4 ± 2% for the first, 98.6 ± 6.4% for the second.

First: CCCn1c(=O)c2[nH]c(-c3ccccc3)nc2n(CCC)c1=O [1,3-Dipropyl-8-phenylxanthine]
Second: CN=c1nc(-c2ccccc2)n(-c2ccccc2)s1
The “uninfected host cell viability” value of the first is higher: 100 ± 7.9% for the first, 84.4 ± 5.6% for the second.

Going from `Clc1ccc2c(c1)N=C(N1CCNCC1)c1ccccc1N2` [N-Desmethylclozapine] to `CN(C)CCCN1c2ccccc2CCc2ccc(Cl)cc21` [Clomipramine hydrochloride], the “uninfected host cell viability” value falls from 86.15 ± 0.28% to 85.211 ± 0.0046%.

`COc1ccc([C@@H]2CNC(=O)C2)cc1OC1CCCC1` [(R)-(-)-Rolipram] and `COc1cc2c(cc1O)CC[C@@H]1[C@@H]2CC[C@]2(C)[C@@H](O)CC[C@@H]12` [2-Methoxyestradiol] are within error of each other in “uninfected host cell viability” value: 82.9 ± 1% for the first, 89.4 ± 7.2% for the second.

Going from `N[C@H]1CCN(O)C1=O` to `N#Cc1ccc(NCCNCC(=O)N2CCC[C@H]2C#N)nc1` [NVP DPP 728 dihydrochloride], the “uninfected host cell viability” value rises from 90 ± 4.5% to 97.8 ± 1.5%.

`Nc1[nH]nc2nc3ccccc3nc12` and `COC(=O)C1=C(C)NC(C)=C(C(=O)OC)C1c1ccccc1[N+](=O)[O-]` [Nifedipine] are within error of each other in “uninfected host cell viability” value: 85.7 ± 7.2% for the first, 81.3 ± 2.3% for the second.

`CCN(CC)CCOC(=O)C1(c2ccc([N+](=O)[O-])cc2)CCCC1` [Nitrocaramiphen hydrochloride] and `O=C(OCCN1CCOCC1)C1(c2ccccc2)CCCCC1` [PRE-084 hydrochloride] are within error of each other in “uninfected host cell viability” value: 96.4 ± 4% for the first, 89.3 ± 4.8% for the second.

`CC(C)(C)c1ccc(/C=C/C(=O)Nc2ccc3c(c2)OCCO3)cc1` and `CC(=Cc1ccc(C(=O)O)cc1)c1ccc2c(c1)C(C)(C)CCC2(C)C` are within error of each other in “uninfected host cell viability” value: 78.46 ± 0.51% for the first, 80.4 ± 2.1% for the second.

Compared with `CC(Oc1ccc(O)cc1)(P(=O)(O)O)P(=O)(O)O`, `Oc1ccc(C2CNCCc3c2cc(O)c(O)c3Cl)cc1` (stereo not drawn) [Fenoldopam hydrochloride] is lower in “uninfected host cell viability” value: 95.3 ± 1.8% for the first, 90.23 ± 0.32% for the second.

Compared with `COCCCC/C(=N\OCCN)c1ccc(C(F)(F)F)cc1` [Fluvoxamine maleate], `O=C(Nc1cc(C(F)(F)F)cc(C(F)(F)F)c1)c1cc(Cl)ccc1O` is lower in “uninfected host cell viability” value: 91.94 ± 0.13% for the first, 46.8 ± 2.5% for the second.

Going from `CCCCC1CCC(c2nc(-c3ccncc3)no2)CC1` (stereo not drawn) to `CCCC[P+](CCCC)(CCCC)Cc1ccc(NC(=O)C(Cc2ccc3ccccc3c2)NC(=NC2CCCCC2)NC2CCCCC2)cc1` (stereo not drawn), the “uninfected host cell viability” value falls from 102 ± 3.9% to 85.8 ± 2.3%.

First: COc1ccc(CC(C)NCC(O)c2ccc(O)c(NC=O)c2)cc1 (stereo not drawn) [Formoterol hemifumarate]
Second: N#C/C(=C\c1ccc(O)c(O)c1)C(=O)Nc1ccccc1
The “uninfected host cell viability” value of the first is higher: 97.3 ± 1.1% for the first, 79.9 ± 1.9% for the second.

First: COc1[nH]c2ccc(F)cc2c1C(=O)OCC1CCN(CCNS(C)(=O)=O)CC1.NS(=O)(=O)O
Second: COC(=O)C1=C(C)NC(C)=C(C(=O)OCCCN2CCC(c3ccccc3)(c3ccccc3)CC2)[C@@H]1c1cccc([N+](=O)[O-])c1 [(R)-(-)-Niguldipine hydrochloride]
The “uninfected host cell viability” value of the first is higher: 89.8 ± 2.6% for the first, 76.3 ± 0.78% for the second.

First: Nc1nnc(Sc2ncc([N+](=O)[O-])s2)s1
Second: O=C1NC(=O)C(c2ccccc2[N+](=O)[O-])=C1Nc1ccc(O)c(Cl)c1
The “uninfected host cell viability” value of the first is higher: 89.9 ± 4.9% for the first, 81.3 ± 3.2% for the second.

Going from `CN1Cc2c(C(=O)OC(C)(C)C)ncn2-c2ccsc2C1=O` to `COC(=O)Nc1nc2cc(C(=O)c3cccs3)ccc2[nH]1` [Nocodazole], the “uninfected host cell viability” value falls from 97.9 ± 4.9% to 75 ± 2.4%.

Compared with `CNc1cc2c(Nc3cccc(Br)c3)ncnc2cn1`, `COc1cc2c(Nc3ccc(NC(=O)c4ccccc4)cc3)ncnc2cc1OCCCN1CCOCC1` is lower in “uninfected host cell viability” value: 80.8 ± 2% for the first, 64.74 ± 0.56% for the second.

Going from `C[C@@H]1CN(CCCn2c3ccccc3c3ccccc32)C[C@H](C)N1` [Rimcazole dihydrochloride] to `O=C(O)CN1C(=O)c2cccc3cccc(c23)C1=O` [Alrestatin], the “uninfected host cell viability” value rises from 80.6 ± 2.8% to 101 ± 6.3%.

`NCCc1c[nH]cn1` [Histamine dihydrochloride] and `CC(C)(C=O)Cc1cc(C(C)(C)C)c(O)c(C(C)(C)C)c1` are within error of each other in “uninfected host cell viability” value: 96.1 ± 2.4% for the first, 89.6 ± 8.5% for the second.

With `C[C@H]1O[C@H](O[C@H]2[C@H](O)[C@@H](O)[C@@H](O[C@H]3[C@H](O)[C@@H](O)C(O)O[C@@H]3CO)O[C@@H]2CO)[C@H](O)[C@@H](O)[C@@H]1N[C@H]1C=C(CO)[C@@H](O)[C@H](O)[C@H]1O` (stereo partly drawn) [Acarbose] the “uninfected host cell viability” value was 93.6 ± 8.3%.
